± gives the standard deviation of the averaged measurements. In all, about 33,000 sequences were measured (“E-score (dimensionless, -0.5 to 0.5)”: median about -0.046, highest 2% from about 0.36 on). The list shows a part of the results.

The subject of this experiment is T1, SpTbr T-box DNA-binding domain (GST fusion).
T1 sequence: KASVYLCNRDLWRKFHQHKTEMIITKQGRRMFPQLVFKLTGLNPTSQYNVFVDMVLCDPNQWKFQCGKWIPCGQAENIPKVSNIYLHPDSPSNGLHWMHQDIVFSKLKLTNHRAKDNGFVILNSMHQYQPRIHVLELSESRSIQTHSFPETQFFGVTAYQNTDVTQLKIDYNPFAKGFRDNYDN
Description: PBM E-score of 8-mer (E-score (dimensionless, -0.5 to 0.5)); Tbr is Tbrain of the sea star Patiria miniata (Pm) or the sea urchin Strongylocentrotus purpuratus (Sp); higher = stronger binding preference; most listed sequences are background and not binding sites. The note with it: the construct has about 5 more residues each side. In outline:
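Universal Agilent oligonucleotide arrays, made double-stranded by primer extension, were incubated with 200 nM GST-fused Tbr T-box DNA-binding domain in PBS (pH 7.5). The protein was expressed in BL21 E. coli at 20 °C and purified by glutathione affinity chromatography. After scanning and quantification, the Universal PBM Analysis Suite assigned an enrichment E-score to each ungapped 8-mer, averaged over duplicate arrays.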
As to AGTTTGGA, the “PBM E-score of 8-mer” value was -0.256 ± 0.0047.
The value for AAAATATA was -0.312 ± 0.0098; that for ATGCAAGG was -0.147 ± 0.024.
For GCCAGGAC, the “PBM E-score of 8-mer” value is -0.0301 ± 0.041.
As for TAGGGACA, the “PBM E-score of 8-mer” value is -0.221 ± 0.04.
Take GGAAGAAA: the “PBM E-score of 8-mer” value was -0.173 ± 0.027.
The value for AAGAAGGG was -0.235 ± 0.083; that for GAAGCGCA was 0.0142 ± 0.0009.
Under GCCTCTAC stands 0.049 ± 0.06; under CCAGCAGC, -0.198 ± 0.01; under AGGGTCAA, -0.246 ± 0.028.
With ATAAGTTA, the “PBM E-score of 8-mer” value was -0.179 ± 0.029.
The value for GGTAATAC was -0.178 ± 0.027; that for AGCCCTTA was -0.188 ± 0.019; that for GTCGTAAC was 0.12 ± 0.1.
The value for ACCGATAA was 0.107 ± 0.022; that for ACTAGCAG was -0.0848 ± 0.034.
The value for CTGTAGTC was -0.274 ± 0.033.
On to AGCTCTAC, for which the “PBM E-score of 8-mer” value was -0.137 ± 0.0066.
Regarding ATACTAAG, the “PBM E-score of 8-mer” value is -0.152 ± 0.015.
Under CCTTGCCA stands -0.0463 ± 0.044; under GAATTCCC, 0.0038 ± 0.051.
CCGAGAAA: the “PBM E-score of 8-mer” value amounted to 0.0462 ± 0.0023.
Under ATGCTGCC stands -0.2795 ± 0.0026; under CTCAGTCC, -0.198 ± 0.026.
The value for CAACCATA was -0.145 ± 0.0046; that for CGCGTGCA was 0.162 ± 0.046.
Turning to CGAATCAA, the “PBM E-score of 8-mer” value was determined as 0.0996 ± 0.026.
Under GCGTAAGC stands 0.142 ± 0.023; under CCGTGTAG, -0.0283 ± 0.025.
Under CAGCTATA stands -0.0219 ± 0.0047.
Under ATGCATAG stands -0.197 ± 0.038; under CGCTAAGA, 0.198 ± 0.039; under GGGAGATA, -0.0554 ± 0.076.
With CCGATCGC, the “PBM E-score of 8-mer” value was 0.16 ± 0.16.
Regarding AGAGAATC, the “PBM E-score of 8-mer” value is 0.0192 ± 0.038.
Under CGAACACA stands 0.248 ± 0.048; under TCATCGAA, -0.138 ± 0.11.
The value for AGTATGAT was -0.0275 ± 0.072.
Under CGCGGTTA stands 0.0483 ± 0.083; under ACGTTTTG, 0.0314 ± 0.068.
As for GGCGAGCA, the “PBM E-score of 8-mer” value was -0.0508 ± 0.079.
The value for GTCTAAAA was 0.0084 ± 0.061; that for CCGGTGAG was 0.089 ± 0.024.
The value for GGATTGCA was -0.101 ± 0.0032; that for AAAGGTGA was 0.316 ± 0.0022.
Under AGAAAAGG stands -0.0361 ± 0.097; under TACATACA, -0.23353 ± 6.4e-05; under GATGATAC, -0.136 ± 0.012.
ATAAACGG: the “PBM E-score of 8-mer” value is -0.106 ± 0.039.
As to GCTAATAA, the “PBM E-score of 8-mer” value was -0.103 ± 0.039.
The value for GCCCGCGC was 0.00019 ± 0.13; that for AATCGTCA was 0.195 ± 0.01.
Under CAGGCAGG stands -0.128 ± 0.06; under CACCCCTG, 0.269 ± 0.009.
Under ACCGTAGG stands -0.113 ± 0.038.
On to AATCGTGA, for which the “PBM E-score of 8-mer” value amounted to 0.211 ± 0.027.
The value for CGCGTTAA was 0.229 ± 0.061; that for CGGCGACG was -0.0181 ± 0.067.
Under CCTATCCG stands -0.253 ± 0.0099; under CCTGTACG, -0.15 ± 0.0064; under AGTGTCGG, 0.36 ± 0.015.
Consider CACGTCGG, for which the “PBM E-score of 8-mer” value stood at 0.256 ± 0.076.
Under CAATCGGA stands -0.221 ± 0.015; under ACGTCAGT, 0.129 ± 0.053; under GACGTATA, -0.0768 ± 0.028.
Under CACGCCAA stands 0.278 ± 0.0052; under ATAAAAGC, -0.0319 ± 0.08; under AGTGGTTC, -0.0892 ± 0.026.
Under TTACCAAA stands 0.0706 ± 0.014.
With GATGAGGC, the “PBM E-score of 8-mer” value is -0.112 ± 0.027.
The value for CAGCTGTA was -0.0719 ± 0.024; that for CACCGGTA was 0.119 ± 0.07.
On to TATTCGAA, for which the “PBM E-score of 8-mer” value is -0.0307 ± 0.088.
The value for AATGTACT was -0.0787 ± 0.011; that for CTAGTCCC was -0.138 ± 0.041.
Under CAACAGAC stands -0.0833 ± 0.036; under TGACGGCA, 0.181 ± 0.031; under CAGAAAAC, -0.141 ± 0.052.
Regarding GTCAACAC, the “PBM E-score of 8-mer” value was 0.434 ± 0.0065.
The value for ACGGCTCG was 0.112 ± 0.05; that for CCATCGTC was 0.152 ± 0.045; that for CACTGGTA was 0.0119 ± 0.0091.
The value for GGTACACC was 0.0483 ± 0.068; that for AATAGAAT was -0.0803 ± 0.073; that for ATCACTAG was 0.0084 ± 0.021.
